Laboratory results: publication PMC4336329 (PLoS ONE, 2015)
Among all 310,000 compounds or so, about 14,000 (4.5%) showed an effect of 50% or more. The effect is printed as a negative number. Some of the results follow.

target: human ether-à-go-go-related gene (hERG) potassium channel (human, UniProt Q12809); assay: primary screen, population patch clamp on CHO cells stably expressing hERG
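Note: peak tail current of the secondary pulse compared with the same well before compound.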

human ether-à-go-go-related gene (hERG) potassium channel, sequence (Q12809 whole entry, looked up): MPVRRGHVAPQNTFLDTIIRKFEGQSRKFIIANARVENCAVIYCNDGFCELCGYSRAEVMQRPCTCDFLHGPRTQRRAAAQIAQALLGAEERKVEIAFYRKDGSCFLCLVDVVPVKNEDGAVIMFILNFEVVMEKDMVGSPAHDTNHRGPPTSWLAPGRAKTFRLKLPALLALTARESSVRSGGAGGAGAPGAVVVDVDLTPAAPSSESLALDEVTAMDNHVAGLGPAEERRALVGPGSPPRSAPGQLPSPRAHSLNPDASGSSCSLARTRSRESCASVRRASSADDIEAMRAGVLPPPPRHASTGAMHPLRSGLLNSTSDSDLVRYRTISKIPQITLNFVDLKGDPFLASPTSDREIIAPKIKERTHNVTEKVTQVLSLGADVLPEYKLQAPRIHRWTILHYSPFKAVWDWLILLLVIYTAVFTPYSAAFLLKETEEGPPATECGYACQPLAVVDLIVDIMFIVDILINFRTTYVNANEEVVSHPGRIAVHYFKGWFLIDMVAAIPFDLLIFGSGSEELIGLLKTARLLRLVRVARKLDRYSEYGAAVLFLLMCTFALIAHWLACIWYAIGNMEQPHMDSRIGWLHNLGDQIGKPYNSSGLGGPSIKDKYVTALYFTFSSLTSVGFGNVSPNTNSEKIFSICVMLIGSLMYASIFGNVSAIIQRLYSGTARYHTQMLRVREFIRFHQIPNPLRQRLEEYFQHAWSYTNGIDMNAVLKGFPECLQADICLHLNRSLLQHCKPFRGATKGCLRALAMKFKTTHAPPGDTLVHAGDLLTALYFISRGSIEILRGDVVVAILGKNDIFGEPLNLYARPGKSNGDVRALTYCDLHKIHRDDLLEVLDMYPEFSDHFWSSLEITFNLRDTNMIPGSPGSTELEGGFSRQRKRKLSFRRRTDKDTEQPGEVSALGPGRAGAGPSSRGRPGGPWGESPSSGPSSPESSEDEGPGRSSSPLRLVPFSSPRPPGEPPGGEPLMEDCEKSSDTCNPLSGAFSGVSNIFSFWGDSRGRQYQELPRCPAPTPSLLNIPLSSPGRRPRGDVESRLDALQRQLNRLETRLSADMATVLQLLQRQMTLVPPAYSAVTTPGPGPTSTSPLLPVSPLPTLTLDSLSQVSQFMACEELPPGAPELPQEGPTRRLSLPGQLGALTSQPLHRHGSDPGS

| SMILES | hERG current change (%, negative = inhibition) at 10uM [%] |
| --- | --- |
| COc1ccc(Cl)cc1C(=O)n1nc(C)cc1C | 2.79 |
| Cc1cc(NC(=O)CN(C)C)c([N+](=O)[O-])cc1C | 6.66 |
| COc1ccccc1C(=O)Nc1cccc(N(C)S(C)(=O)=O)c1 | 25 |
| C/C(=N/NC(=O)c1cc(-c2ccccc2)nc2c(Cl)cccc12)c1cccnc1 | 26.1 |
| Nc1nc(N)c(N=O)c(OCC2CCCCC2)n1 | 11.4 |
| O=C1CC(Sc2ccc(Cl)cc2)C(=O)N1Cc1ccncc1 (centres unmarked) | -19.6 |
| N#Cc1c(NC(=S)NC(=O)c2ccccc2)sc2c1CCC2 | 7.07 |
| COc1cccc(OCCNc2cc(N3CCCCC3)ccc2[N+](=O)[O-])c1 | 18.5 |
| COCc1cc(N2CCN(c3ccccc3F)CC2)nc(-c2ccccc2)n1 | 8.03 |
| COC(=O)c1ccc(/C=N/Nc2nc(N3CCCCC3)nc(N3CCCCC3)n2)cc1 | 3.51 |
| COc1ccc(C2=Nn3c(nnc3C3CCCCC3)SC2)cc1OC | -16.2 |
| Cc1ccc(OCCOCCNC(C)C)c(Br)c1.O=C(O)C(=O)O | -18.3 |
| C=CCNC(=O)c1onc(CSc2ccc(C)c(C)c2)c1C(=O)O | 12.3 |
| COc1ccc2c(c1)c1nnc(SCC(=O)NC3CC3)nc1n2C | -6.02 |
| CN1C(=O)/C(=C/c2ccc(OCc3ccc(F)cc3)cc2)NC1=S | 23.6 |
| COC(=O)c1ccc(NC(=S)NN2CCOCC2)cc1 | -2.64 |
| N#Cc1c(-c2ccccc2)cc2nc3ccccc3n2c1N | 10.6 |
| CC(=O)c1ccc(NC(=O)C2CCCN(S(=O)(=O)c3c(C)[nH]c(=O)[nH]c3=O)C2)cc1 (centres unmarked) | 12.3 |
| CCOC(=O)c1ccc(NC(=O)CCOc2ccc(C)cc2)cc1 | 10.4 |
| Cc1ccc(-c2c(C(=O)N/N=C/c3ccc4c(c3)OCO4)nnn2-c2nonc2N)cc1 | 25.3 |
| COC(=O)c1cc(NC(=O)c2ccc([N+](=O)[O-])cc2)c(=O)oc1C | 9.29 |
| COc1ccc(/C(C)=N/Nc2nc3ccccc3nc2C)cc1OC | -13.5 |
| C=CCC(CC(O)COCCC)C(=O)NNC(=S)Nc1ccccc1 (centres unmarked) | 11.4 |

| SMILES | hERG current change (%, negative = inhibition) at 10uM [%] |
| --- | --- |
| COc1cc(/C=N/NC(=O)c2ccncc2)ccc1O | 9.86 |
| C=C(C)COc1ccc(-c2nc(N)nc(C(F)(F)F)c2-c2ccc(OC)cc2)c(O)c1 | 21.9 |
| O=C(c1cccc(Cl)c1)N1CCC(C(=O)N2CCN(Cc3ccccc3)CC2)CC1 | -56.2 |
| Cc1cc(OCC(=O)NCC(c2cccs2)N2CCOCC2)ccc1C(C)C (centres unmarked) | -48.8 |
| CCc1ccccc1NC(=O)CCC(=O)Nc1nnc(C(C)C)s1 | 23.4 |
| COc1ccc(-c2noc(N3CCC(C(=O)Nc4ccccc4OC)CC3)n2)cc1 | -12 |
| CCN1C(=O)C(CC(=O)Nc2ccc(F)cc2)N(Cc2ccco2)C1=S (centres unmarked) | -24.2 |
| CCOc1ccc2[nH]c(=O)c(CN(CCc3ccccc3)C(=O)N3CCCC3)cc2c1 | -10.1 |
| O=C(Nc1ccc(Br)cc1)C1Cc2ccccc2O/C1=N\O (centres unmarked) | 11.9 |
| O=C(NCc1ccc(F)cc1)C1CCN(C(=O)NCc2ccccc2)CC1 | 6.31 |
| COCCSc1nnc(NC(=O)COc2ccc3c(c2)OCO3)s1 | 13 |
| COc1cc(C)c(Cl)cc1S(=O)(=O)NCc1ccco1 | 2.33 |
| O=C1CC(C(=O)O)S/C(=N\NC(=O)c2ccccc2)N1 (centres unmarked) | -1.06 |
| COc1ccc(N2C(=O)/C(=C/c3ccc(C)o3)C(=O)NC2=S)c(OC)c1 | 19.2 |
| CCOc1c(N2CCCCC2)c(=O)c1=O | 0.507 |
| Cc1ccc2c(c1)N(CC(=O)N1CCCCC1)C(=O)C(C)O2 (centres unmarked) | 11.9 |
| Cc1cc2ncn(CC3CC3(Cl)Cl)c2cc1C (centres unmarked) | -12.8 |
| Cc1cc(SCn2nnc3ccccc3c2=O)nc2ccccc12 | 12.4 |
| CCOc1cc(/C=N\NC(=O)c2ccc(NC(=O)C(C)(C)C)cc2)ccc1OC(=O)c1ccc(C)cc1 | 11.8 |
| CCn1c(SCC(=O)O)nnc1-c1cccnc1 | 7.11 |
| O=C(O)c1ccc2c(c1)C(=O)N(c1cccc(-c3nc4ccccc4s3)c1)C2=O | 5.79 |
| CCOC(=O)Cc1csc(NC(=O)CSc2nnc(-c3ccncc3)o2)n1 | 7.63 |
| O=C(O)C#Cc1cccc2ccccc12 | 29.8 |

| SMILES | hERG current change (%, negative = inhibition) at 10uM [%] |
| --- | --- |
| O=C(CN(Cc1ccc(F)cc1)S(=O)(=O)c1ccccc1)N1CCCCC1 | -26.8 |
| O=C(NCc1cccnc1)Nc1ccc(Br)cc1Cl | 2.79 |
| COc1ccccc1N(C(=O)c1ccco1)C(C(=O)NC1CCCCC1)c1cc(OC)c(OC)c(OC)c1 (centres unmarked) | -9.89 |
| CCN(CC)c1ccc(-c2n[nH]c(=S)n2-c2ccccc2C)cc1 | 12.4 |
| Cc1ccc(NC(=O)CCC(=O)OCC(=O)c2ccc(Oc3ccc([N+](=O)[O-])cc3)cc2)cc1 | 13.1 |
| Cc1cc(C(=O)CSc2n[nH]c(N)n2)c(C)n1-c1cccc(F)c1 | -26.3 |
| COc1ccc(C(=O)[C@H]2[C@H]3C(=O)N(c4ccccc4)C(=O)[C@H]3C3C=CC=NN32)cc1 (some centres unmarked) | 4.94 |
| Cc1cc(=O)[nH]c2c(C)c(N)ccc12 | 6.03 |
| CC(C)NC(=O)C1=NN(c2ccccc2)C(=O)CC1 | 24.3 |
| CCC(C)c1ccccc1NC(=O)c1[nH]c(C)c(C(C)=O)c1C (centres unmarked) | -2.59 |
| CC(C)(C)NC(=O)C(c1ccncc1)N(C(=O)CNC(=O)c1ccco1)c1ccc2c(c1)OCO2 (centres unmarked) | 9.79 |
| CCOc1nc(-c2ccccc2O)nc2ccccc12 | 2.42 |
| CCCCN(C)CCCNC(=O)CC1Oc2ccccc2NC1=O (centres unmarked) | -5.89 |
| Cc1nnc(SCC(=O)Nc2nnc(SCc3cccc(Br)c3)s2)s1 | 6.06 |
| COCCCN=C1NN=C(c2cc(C)n(-c3ccccc3F)c2C)CS1 | -17.1 |
| C=CCOC(=O)C1=C(C)NC(=S)C(C#N)(CC=C)C1c1ccccc1Cl (centres unmarked) | 8.99 |
| COc1ccc(Br)cc1C(=O)Nc1ccccc1-c1ccccc1 | -2.5 |
| C=CCc1cccc2cc(C(=O)N(CC)CC)c(=O)oc12 | -6.47 |
| CCO.CSc1sc(C)cc1C1C(C#N)=C(N)N(c2cccnc2)C2=C1C(=O)CC(C)(C)C2 (centres unmarked) | -42.3 |
| COc1cccc(-c2nnc(SCC(=O)Nc3ccc(S(N)(=O)=O)cc3)n2C)c1 | -12.8 |
| CC(=O)c1ccccc1OC(=O)COc1ccc(Cl)cc1C | 17.1 |
| O=S(=O)(Nc1c(S(=O)(=O)c2ccccc2)c2nc3ccccc3nc2n1C1CCCCC1)c1ccccc1 | -8.87 |
| S=C1NCN(Cc2cccnc2)CN1 | 14.2 |

| SMILES | hERG current change (%, negative = inhibition) at 10uM [%] |
| --- | --- |
| CCOc1cc(/C=N/NC(=O)C(=O)NCC2CCCO2)ccc1OCC(=O)N1CCOCC1 (centres unmarked) | 3.3 |
| Cc1cc(C)n2c(nc3ccccc32)c1C(=O)NN | 4.99 |
| CCOC(=O)CSc1ncc(OC)c(Sc2ccc(Cl)cc2)n1 | 3.37 |
| O=C(CN(Cc1ccccc1Cl)C(=O)CNS(=O)(=O)c1ccc(F)cc1)NCC1CCCO1 (centres unmarked) | -10.4 |
| Cc1ccc(S(=O)(=O)NCC(=O)OCC(=O)NCc2ccc(F)cc2)cc1 | -18.9 |
| COC(=O)c1ccccc1C(=O)N1CC(O)CO1 (centres unmarked) | 16.5 |
| Cc1cc(C)c2nc(N3CCC(C(=O)NCCCN4CC(C)CC(C)C4)CC3)sc2c1 (centres unmarked) | -71.8 |
| COc1ccc([C@H]2CC(=O)C=C(c3cccc(CO)c3)C2)cc1OC | -63.6 |
| CCNS(=O)(=O)c1ccc(NC(=O)c2cncc(Br)c2)cc1 | -15.3 |
| CCOc1ccc(CCNC(=O)CSc2nn(-c3ccc(C)c(Cl)c3)c(=S)s2)cc1OCC | 10.9 |
| Cc1occc(=O)c1OCc1ccccc1 | -3.91 |
| CCCNC(=O)C(CC)NS(=O)(=O)c1ccc(OC)cc1 (centres unmarked) | 9.22 |
| CC(C)[C@H](NC(=O)[C@@H]1CSC2c3ccccc3C(=O)N21)C(=O)N1CCCCC1 (some centres unmarked) | 7.3 |
| CCOC(=O)CSCC(=O)Nc1nnc(-c2cccc([N+](=O)[O-])c2)s1 | -13.4 |
| O=S(=O)(Nc1cccc(-n2cnnn2)c1)c1ccc(Cl)cc1 | 16.7 |
| COc1cc(/C=C2\C(=N)N3N=C(S(=O)(=O)CC(C)C)SC3=NC2=O)ccc1OC(=O)c1ccco1 | 17.2 |
| COc1cc2ccccc2cc1C(=O)OCC(=O)N1CCOCC1 | 15.3 |
| COc1ccccc1Cn1c(CCCO)nc2ccccc21 | -8.81 |
| Nc1c(NCCc2ccccc2)c2ccccc2oc1=O | -11.9 |
| COc1ccc(NC(=O)CSc2nc(-c3ccncc3)nn2CC(=O)N2CCCC2)cc1 | -8.96 |
